# Assay results as given in patent US20250057968A1, “ANTI-DLL3 ANTIBODY AND PHARMACEUTICAL USE THEREOF, AND ANTIBODY-DRUG CONJUGATE CONTAINING ANTI-DLL3 ANTIBODY” (Jiangsu Hengrui Pharmaceuticals Co., Ltd., priority 2021, published 2025).
# Substitutions are numbered along the chain they refer to.
# T1: human DLL3 (Homo sapiens, UniProt Q9NYJ7)
# T1 construct: purchased ACRO DLL3-H52H4
# T1 sequence (Q9NYJ7 27-492 limits assumed): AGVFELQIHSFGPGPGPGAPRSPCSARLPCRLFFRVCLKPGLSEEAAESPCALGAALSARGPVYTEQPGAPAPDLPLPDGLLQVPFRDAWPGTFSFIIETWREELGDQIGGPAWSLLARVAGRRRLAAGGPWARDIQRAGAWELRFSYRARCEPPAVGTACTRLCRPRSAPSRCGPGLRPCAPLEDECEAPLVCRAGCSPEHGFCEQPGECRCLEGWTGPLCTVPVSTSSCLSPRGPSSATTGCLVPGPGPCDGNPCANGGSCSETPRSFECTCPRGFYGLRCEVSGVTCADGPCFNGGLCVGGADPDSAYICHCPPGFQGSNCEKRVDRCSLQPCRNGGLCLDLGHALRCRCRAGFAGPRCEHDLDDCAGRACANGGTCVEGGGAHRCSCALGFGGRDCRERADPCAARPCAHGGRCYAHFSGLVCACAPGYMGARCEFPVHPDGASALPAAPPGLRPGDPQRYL
# B1: ADC-2: antibody-drug conjugate of antibody Hu100 with compound L-9 (ecteinascidin derivative linker-drug), DAR n=3.72-4.88 (conjugate)
# heavy: EVQLVESGGGLVKPGGSLRLSCAASGFTFSDSGMHWIRQAPGKGLEWVSYISSGSSTIHYADTVKGRFTISRDNAKNSLYLQMNSLRAEDTAVYYCASPLYYYGRSYNAVAYWGQGTTVTVSS[human IgG1 constant region not written out]
# light: DIQMTQSPSSLSASVGDRVTITCHASQNINVWLSWYQQKPGKVPKLLIYKASDLHTGVPSRFSGSGSGTDFTLTISSLQPEDVATYYCQQGQSYPLTFGGGTKVEIKRTVAAPSVFIFPPSDEQLKSGTASVVCLLNNFYPREAKVQWKVDNALQSGNSQESVTEQDSKDSTYSLSSTLTLSKADYEKHKVYACEVTHQGLSSPVTKSFNRGEC
# B2: hAb6L2H7: humanized antibody of mAb6: hAb6VH7 (SEQ ID NO: 38) + hAb6VL2 (SEQ ID NO: 46), constant regions SEQ ID NO: 28/29 (antibody)
# heavy: EVQLVESGGGLVQPGGSLKLSCAASGYTFTDYYMNWVRQASGKGLEWVGIINPYSGVTIYNHKFKGRFTLSVDKSKNTAYLQMNSLKTEDTAVYYCARQDSLLDYAMDYWGQGTTVTVSS[human IgG1 constant region not written out]
# light: DIQMTQSPSSLSASVGDRVTITCHASQGISGNMGWLQQKPGKAPKGLIYHGANLEDGVPSRFSGSGSGADYTLTISSLQPEDFATYYCVQYAQFPYTFGGGTKVEIKRTVAAPSVFIFPPSDEQLKSGTASVVCLLNNFYPREAKVQWKVDNALQSGNSQESVTEQDSKDSTYSLSSTLTLSKADYEKHKVYACEVTHQGLSSPVTKSFNRGEC
# B3: hAb6L2H11: humanized antibody of mAb6: hAb6VH11 (SEQ ID NO: 42) + hAb6VL2 (SEQ ID NO: 46), constant regions SEQ ID NO: 28/29 (antibody)
# heavy: EVQLVQSGSELKKPGASVKVSCKASGYTFTDYYMNWVKQAPGQGLEWMGIINPYSGVTIYNHKFKGRFVLSVDKSSNTAYLQISSLKAEDTAVYYCARQDSLLDYAMDYWGQGTTVTVSS[human IgG1 constant region not written out]
# light: B2 light
# B4: hAb6L2H12: humanized antibody of mAb6: hAb6VH12 (SEQ ID NO: 43) + hAb6VL2 (SEQ ID NO: 46), constant regions SEQ ID NO: 28/29 (antibody)
# heavy: B3 heavy with K38R, V69A
# light: B2 light
# B5: hAb6L2H13: humanized antibody of mAb6: hAb6VH13 (SEQ ID NO: 44) + hAb6VL2 (SEQ ID NO: 46), constant regions SEQ ID NO: 28/29 (antibody)
# heavy: B3 heavy with V69A
# light: B2 light
# B6: M6CHI: anti-DLL3 chimeric antibody: mAb6 variable regions, human IgG1 (SEQ ID NO: 28) and κ (SEQ ID NO: 29) constant regions (antibody)
# heavy: EVQLQQSGPVLVKPGASVKMSCKASGYTFTDYYMNWVKQSHGKSLEWIGIINPYSGVTIYNHKFKGKATLTVDKSSNTAYMELNSLTSEDSAVYYCARQDSLLDYAMDYWGQGTSVTVSS[human IgG1 constant region not written out]
# light: DILMTQSPSSMSVSLGDTVSITCHASQGISGNMGWLQQKPGKSFKGLIYHGANLEDGVPSRFSGSGSGADYSLTISSLESEDFADYYCVQYAQFPYTFGGGTKLEIKRTVAAPSVFIFPPSDEQLKSGTASVVCLLNNFYPREAKVQWKVDNALQSGNSQESVTEQDSKDSTYSLSSTLTLSKADYEKHKVYACEVTHQGLSSPVTKSFNRGEC
# B7: hAb6L1H1: humanized antibody of mAb6: hAb6VH1 (SEQ ID NO: 32) + hAb6VL1 (SEQ ID NO: 45), constant regions SEQ ID NO: 28/29 (antibody)
# heavy: EVQLVQSGAEVKKPGASVKVSCKASGYTFTDYYMNWVRQAPGQRLEWMGIINPYSGVTIYNHKFKGRVTITVDKSASTAYMELSSLRSEDTAVYYCARQDSLLDYAMDYWGQGTTVTVSS[human IgG1 constant region not written out]
# light: B2 light with A69T, Y71F
# B8: hAb6L1H2: humanized antibody of mAb6: hAb6VH2 (SEQ ID NO: 33) + hAb6VL1 (SEQ ID NO: 45), constant regions SEQ ID NO: 28/29 (antibody)
# heavy: B7 heavy with I70L, S77N
# light: B2 light with A69T, Y71F
# B9: hAb6L1H3: humanized antibody of mAb6: hAb6VH3 (SEQ ID NO: 34) + hAb6VL1 (SEQ ID NO: 45), constant regions SEQ ID NO: 28/29 (antibody)
# heavy: B7 heavy with M48I, V68A, I70L, S77N
# light: B2 light with A69T, Y71F
# B10: hAb6L2H1: humanized antibody of mAb6: hAb6VH1 (SEQ ID NO: 32) + hAb6VL2 (SEQ ID NO: 46), constant regions SEQ ID NO: 28/29 (antibody)
# heavy: B7 heavy
# light: B2 light
# Experiments:
# [1] = tested on: DMS53/DLL3high and U-20S cells (co-culture); conditions: 6 days, FACS cell count
# [2] = tested on: CHO-K1 (−); experiment: Toxicity of ADCs to cells with different DLL3 expression levels, CHO-K1; format: cell-based; conditions: 6 days, CTG
# Experimental: (§1) The experimental procedure was as follows: • a. A cell suspension was prepared in fresh cell culture medium containing 10% FBS and added to a 96-well cell culture plate (Corning, 3903) at 135 μL/well, with columns 1 and 12 containing 135 μL of medium and no cells. The plate was incubated at 37° C. with 5% carbon dioxide for 16 h. • b. First-well working solutions of ADC samples (10×) were prepared in PBS, and with this concentration as the initial concentration, a serial dilution was performed with PBS by a corresponding factor. […] CTG (Promega, G7573) was added at 70 μL/well. The plate was incubated in the dark at room temperature for 10 min, and chemiluminescence was measured on Victor3. Data were processed using GraphPad Prism5, with the X-axis representing antibody or ADC concentration and the Y-axis representing light intensity.
# (§2) The plating densities for different cells, first-well working solution concentrations (10×), and dilution factors are shown in Table 14.
# (§3) The results are shown in Table 15 and FIG. 4A to FIG. 4E.
# [3] = tested on: DMS53 xenograft tumors; experiment: In vivo efficacy in CDX mouse model of DMS53 cells
# [4] = tested on: DMS53 (+); experiment: Toxicity of ADCs to cells with different DLL3 expression levels, DMS53; format: cell-based, human; conditions: 6 days, CTG
# Experimental: as §1, §2, §3
# [5] = tested on: H1184 (+++); experiment: Toxicity of ADCs to cells with different DLL3 expression levels, H1184; format: cell-based, human; conditions: 6 days, CTG
# Experimental: as §1, §2, §3
# [6] = tested on: U-2OS (−); experiment: Toxicity of ADCs to cells with different DLL3 expression levels, U-2OS; format: cell-based; conditions: 6 days, CTG
# Experimental: as §1, §2, §3
# [7] = tested on: H1184 xenograft tumors; experiment: In vivo efficacy in CDX mouse model of H1184 cells
# [8] = tested on: HT-29 (−); experiment: Toxicity of ADCs to cells with different DLL3 expression levels, HT-29; format: cell-based; conditions: 6 days, CTG
# Experimental: as §1, §2, §3
# [9] = target: T1, human DLL3; experiment: Biacore antibody affinity assay, human DLL3; format: binding
# Source text: Test antibodies were affinity-captured with a Protein A biosensor chip (Cat. #29127556, Cytiva) for 18 seconds, and then the antigens human DLL3 (ACRO, DLL3-H52H4), cynomolgus monkey DLL3 (KACTUS, DLL-RM103), and mouse DLL3 (KACTUS, DLL-MM103) were allowed to flow over the surface of the chip for 180 seconds, followed by 600 seconds of dissociation. Reaction signals were detected in real time using a Biacore 8K (Cytiva) instrument to obtain association and dissociation curves. After the dissociation in each experimental cycle, the biosensor chip was washed and regenerated with a 10 mM glycine-hydrochloric acid solution (pH 1.5) (Cat. #BR-1003-54, Cytiva). A 1:1 model was fit to the data. The results are shown in Table 12-1, Table 12-2, and Table 12-3.
Molecule,ka [9] [M⁻¹ s⁻¹],kd [9] [s⁻¹],further results
B1,,,"bystander cytotoxic effect (in words) [1]: significant bystander cytotoxic effects; killing of DLL3-negative CHO-K1 cells (in words) [2]: cannot kill; Day-18 TGI (%) ([3]; 1.8 mg/kg intraperitoneally once a week, 2 administrations, Balb/c mouse): 58.71%; inhibition of growth of subcutaneous xenograft tumors of DMS53 cells (in words) ([3]; dose of 1.8 mpk): significantly inhibit the growth; Imax (%) [4]: 99.37%; Imax (%) [5]: 99.71%; killing of DLL3-negative U-20S cells (in words) [6]: cannot kill; Day-18 TGI (%) ([7]; 1.8 mg/kg intraperitoneally once a week, 3 administrations, NDG mouse): 107%; inhibition of growth of H1184 xenograft tumors (in words) ([7]; dose of 1.8 mpk): significantly inhibit the growth; killing of DLL3-negative HT-29 cells (in words) [8]: cannot kill"
B2,670000,0.00205,
B3,2.06e+06,0.000749,
B4,1.98e+06,0.000913,
B5,2.1e+06,0.000803,
B6,965000,0.000657,
B7,798000,0.00225,
B8,787000,0.00173,
B9,812000,0.00224,
B10,709000,0.00155,
